This note sets out measurements from the supplement of paper PMC11876631.

± gives the standard deviation of the averaged measurements. Laboratory Escherichia coli strains with one amino-acid change in an essential protein, pooled on minimal glucose agar with carbenicillin or gentamicin at twice the control MIC (plus kanamycin and chloramphenicol for the plasmids), 48 h. Fold change of barcode share against drug-free plates; higher = less susceptible. Active = above 20 in both replicates (the paper's putatively resistant). '<' = one read or none on drug, '>' = one read or none on a drug-free plate. Shares are relative, so most strains fall below 1 when a few take over. Listed are strains with at least 15 reads on both drug-free plates, and hits; most hits rest on fewer reference reads. Replicate rank correlation about 0.5. Edits are read from barcodes.

B1: thiL F103W (protein)
chain: MACGEFSLIARYFDRVRSSRLDVELGIGDDCALLNIPEKQTLAISTDTLVAGNHFLPDIDPADLAYKALAVNLSDLAAMGADPAWLTLALTLPDVDEAWLESWSDSLFDLLNYYDMQLIGGDTTRGPLSMTLGIHGFVPMGRALTRSGAKPGDWIYVTGTPGDSAAGLAILQNRLQVADAKDADYLIKRHLRPSPRILQGQALRDLANSAIDLSDGLISDLGHIVKASDCGARIDLALLPFSDALSRHVEPEQALRWALSGGEDYELCFTVPELNRGALDVALGHLGVPFTCIGQMTADIEGLCFIRDGEPVTLDWKGYDHFATP
B2: thiL F137A (protein)
chain: MACGEFSLIARYFDRVRSSRLDVELGIGDDCALLNIPEKQTLAISTDTLVAGNHFLPDIDPADLAYKALAVNLSDLAAMGADPAWLTLALTLPDVDEAWLESFSDSLFDLLNYYDMQLIGGDTTRGPLSMTLGIHGAVPMGRALTRSGAKPGDWIYVTGTPGDSAAGLAILQNRLQVADAKDADYLIKRHLRPSPRILQGQALRDLANSAIDLSDGLISDLGHIVKASDCGARIDLALLPFSDALSRHVEPEQALRWALSGGEDYELCFTVPELNRGALDVALGHLGVPFTCIGQMTADIEGLCFIRDGEPVTLDWKGYDHFATP
B3: thiL F137Q (protein)
chain: MACGEFSLIARYFDRVRSSRLDVELGIGDDCALLNIPEKQTLAISTDTLVAGNHFLPDIDPADLAYKALAVNLSDLAAMGADPAWLTLALTLPDVDEAWLESFSDSLFDLLNYYDMQLIGGDTTRGPLSMTLGIHGQVPMGRALTRSGAKPGDWIYVTGTPGDSAAGLAILQNRLQVADAKDADYLIKRHLRPSPRILQGQALRDLANSAIDLSDGLISDLGHIVKASDCGARIDLALLPFSDALSRHVEPEQALRWALSGGEDYELCFTVPELNRGALDVALGHLGVPFTCIGQMTADIEGLCFIRDGEPVTLDWKGYDHFATP
B4: thiL V138A (protein)
chain: MACGEFSLIARYFDRVRSSRLDVELGIGDDCALLNIPEKQTLAISTDTLVAGNHFLPDIDPADLAYKALAVNLSDLAAMGADPAWLTLALTLPDVDEAWLESFSDSLFDLLNYYDMQLIGGDTTRGPLSMTLGIHGFAPMGRALTRSGAKPGDWIYVTGTPGDSAAGLAILQNRLQVADAKDADYLIKRHLRPSPRILQGQALRDLANSAIDLSDGLISDLGHIVKASDCGARIDLALLPFSDALSRHVEPEQALRWALSGGEDYELCFTVPELNRGALDVALGHLGVPFTCIGQMTADIEGLCFIRDGEPVTLDWKGYDHFATP
B5: thiL F137W (protein)
chain: MACGEFSLIARYFDRVRSSRLDVELGIGDDCALLNIPEKQTLAISTDTLVAGNHFLPDIDPADLAYKALAVNLSDLAAMGADPAWLTLALTLPDVDEAWLESFSDSLFDLLNYYDMQLIGGDTTRGPLSMTLGIHGWVPMGRALTRSGAKPGDWIYVTGTPGDSAAGLAILQNRLQVADAKDADYLIKRHLRPSPRILQGQALRDLANSAIDLSDGLISDLGHIVKASDCGARIDLALLPFSDALSRHVEPEQALRWALSGGEDYELCFTVPELNRGALDVALGHLGVPFTCIGQMTADIEGLCFIRDGEPVTLDWKGYDHFATP
B6: thiL V138Q (protein)
chain: MACGEFSLIARYFDRVRSSRLDVELGIGDDCALLNIPEKQTLAISTDTLVAGNHFLPDIDPADLAYKALAVNLSDLAAMGADPAWLTLALTLPDVDEAWLESFSDSLFDLLNYYDMQLIGGDTTRGPLSMTLGIHGFQPMGRALTRSGAKPGDWIYVTGTPGDSAAGLAILQNRLQVADAKDADYLIKRHLRPSPRILQGQALRDLANSAIDLSDGLISDLGHIVKASDCGARIDLALLPFSDALSRHVEPEQALRWALSGGEDYELCFTVPELNRGALDVALGHLGVPFTCIGQMTADIEGLCFIRDGEPVTLDWKGYDHFATP
B7: thiL F137P (protein)
chain: MACGEFSLIARYFDRVRSSRLDVELGIGDDCALLNIPEKQTLAISTDTLVAGNHFLPDIDPADLAYKALAVNLSDLAAMGADPAWLTLALTLPDVDEAWLESFSDSLFDLLNYYDMQLIGGDTTRGPLSMTLGIHGPVPMGRALTRSGAKPGDWIYVTGTPGDSAAGLAILQNRLQVADAKDADYLIKRHLRPSPRILQGQALRDLANSAIDLSDGLISDLGHIVKASDCGARIDLALLPFSDALSRHVEPEQALRWALSGGEDYELCFTVPELNRGALDVALGHLGVPFTCIGQMTADIEGLCFIRDGEPVTLDWKGYDHFATP

One series addresses Escherichia coli (laboratory strain). Nature of the series: barcode share on antibiotic plates over drug-free plates; higher = less susceptible. The following applies: antibiotic: carbenicillin; 2× MIC (3.1 µg/mL). The method, then: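 A pool of E. coli strains, each edited to carry one amino-acid change in an essential protein, was grown for 48 h on minimal glucose agar with or without antibiotic; strain barcodes were sequenced; mean of two replicates.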
With B1, the “fold change of barcode share” value came to 0.286 ± 0.16.
Consider B2, for which the “fold change of barcode share” value is 1.76 ± 0.49.
On the same count and under the same terms, the figure for B3 is 0.266 ± 0.043.
Turning to B4, the “fold change of barcode share” value worked out at 0.449 ± 0.3.
On to B5, for which the “fold change of barcode share” value was 0.298 ± 0.12.
As to B6, the “fold change of barcode share” value is 0.282 ± 0.19.
As for B7, the “fold change of barcode share” value came out at 0.461 ± 0.046.

Still in this series, the particulars now being: antibiotic: gentamicin; 2× MIC (MIC 0.45 µg/mL).
B1: the “fold change of barcode share” value is less than 0.0159.
On to B2, for which the “fold change of barcode share” value was less than 0.00311.
B3: the “fold change of barcode share” value was 0.0122 ± 0.013.
As for B4, the “fold change of barcode share” value stood at 0.0059 ± 0.004.
As to B5, the “fold change of barcode share” value was 0.0118 ± 0.0096.
Consider B6, for which the “fold change of barcode share” value was less than 0.00883.
Regarding B7, the “fold change of barcode share” value was less than 0.00405.
